# Laboratory results from PMC4336329 (PLoS ONE, 2015).
# Out of some 310,000 compounds screened, about 14,000 (4.5%) showed an effect of 50% or more. The effect is printed as a negative number. This is one part of the list.
# Molecular target: human ether-à-go-go-related gene (hERG) potassium channel (human, UniProt Q12809)
# Experiment: primary screen, population patch clamp on CHO cells stably expressing hERG
# 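Note: peak tail current of the secondary pulse compared with the same well before compound.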
# Chain of human ether-à-go-go-related gene (hERG) potassium channel (Q12809 whole entry, looked up): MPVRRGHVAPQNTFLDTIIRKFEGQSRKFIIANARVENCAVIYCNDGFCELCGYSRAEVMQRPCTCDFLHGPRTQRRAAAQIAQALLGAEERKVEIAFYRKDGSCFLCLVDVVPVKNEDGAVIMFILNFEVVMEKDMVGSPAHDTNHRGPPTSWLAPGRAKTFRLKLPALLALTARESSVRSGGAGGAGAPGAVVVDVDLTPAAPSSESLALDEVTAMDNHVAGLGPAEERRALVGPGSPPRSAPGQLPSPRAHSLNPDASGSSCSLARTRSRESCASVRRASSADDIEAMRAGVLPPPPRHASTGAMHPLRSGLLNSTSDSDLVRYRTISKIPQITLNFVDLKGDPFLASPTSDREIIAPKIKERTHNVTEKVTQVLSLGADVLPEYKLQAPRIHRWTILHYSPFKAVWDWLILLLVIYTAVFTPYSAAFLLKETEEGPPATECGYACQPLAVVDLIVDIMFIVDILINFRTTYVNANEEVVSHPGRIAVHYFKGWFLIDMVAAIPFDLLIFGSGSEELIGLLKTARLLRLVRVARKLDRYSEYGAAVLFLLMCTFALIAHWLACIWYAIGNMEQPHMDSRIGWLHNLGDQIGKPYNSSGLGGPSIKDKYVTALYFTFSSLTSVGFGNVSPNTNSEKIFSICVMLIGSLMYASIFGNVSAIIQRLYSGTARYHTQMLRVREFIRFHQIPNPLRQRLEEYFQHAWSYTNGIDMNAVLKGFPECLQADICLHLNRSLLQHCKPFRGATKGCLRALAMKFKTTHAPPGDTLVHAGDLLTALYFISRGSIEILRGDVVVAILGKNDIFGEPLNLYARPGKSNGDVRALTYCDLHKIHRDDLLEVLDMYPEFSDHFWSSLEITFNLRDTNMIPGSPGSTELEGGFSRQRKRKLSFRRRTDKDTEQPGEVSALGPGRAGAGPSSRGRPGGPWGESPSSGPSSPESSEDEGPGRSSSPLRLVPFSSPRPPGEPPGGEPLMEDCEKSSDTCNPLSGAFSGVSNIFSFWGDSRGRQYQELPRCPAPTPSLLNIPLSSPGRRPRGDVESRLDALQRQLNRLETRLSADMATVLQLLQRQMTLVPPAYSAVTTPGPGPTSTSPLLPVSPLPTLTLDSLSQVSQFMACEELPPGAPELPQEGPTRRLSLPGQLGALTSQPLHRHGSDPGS
row,Compound,"hERG current change (%, negative = inhibition) at 10uM"
1,CC1(C)C[C@@H](O)CC2(C1)C[C@]1(C)CC(O)[C@H]2C(C)(C)C1 (stereo partly shown),2.87%
2,COc1cccc(C(=O)N2CCN(Cc3cccc(F)c3)CC2)c1.O=C(O)C(=O)O,-7.48%
3,O=C(NCCc1ccccc1)C(=O)NC1CCCCC1,1.61%
4,COC(=O)/C(=C\Nc1ccccc1N)c1ncc(C(F)(F)F)cc1Cl,3.74%
5,Cc1ccc(/C=C2\SC(=S)N(CCCC(=O)NNC(=O)c3ccccc3O)C2=O)cc1,-20.1%
6,O=C(C1CCCCC1)N1CC(=O)N2CCc3ccccc3C2C1 (stereo not shown),10.2%
7,COc1cc(CN2CCCC(N3CCN(c4ccc(F)cc4)CC3)C2)ccc1F (stereo not shown),-64.4%
8,Cc1sc2ncn(CC(=O)N3CCCCC3)c(=O)c2c1S(=O)(=O)N1CCC(C)CC1,-3.97%
9,CNC(=O)N(C1=NCC(C)S1)c1ccc(F)cc1F (stereo not shown),-24.2%
10,COC(=O)C1=CN(C(C)C)C=C(C(=O)OC)C1c1cccc(OC)c1,-9.85%
11,Cc1cc(C)cc(OCC(=O)NNC(=O)C2CCCO2)c1 (stereo not shown),9.83%
12,Cc1c(Cl)cccc1NC(=S)Nc1ccc2[nH]c(=O)[nH]c2c1,4.53%
13,CC(=O)Nc1ccc(C(=O)CSc2nnc(Cn3nnc4ccccc43)n2C)cc1,5.92%
14,COc1cc(C#CC#CCN2CCCCC2)ccc1O.Cl,-3.87%
15,Cc1cccc(NC(=O)C(C)N2CC=C(c3ccccc3)CC2)c1 (stereo not shown),-2.86%
16,O=C(CCC1CCCCC1)Nc1nccs1,-1.58%
17,CSc1ccc(C2C3(C#N)C(N)=NC4(OCCO4)C23C#N)cc1 (stereo not shown),-3.53%
18,COc1ccc(-c2csc(NC(=O)CSc3nnc(Nc4ccccc4C)s3)n2)cc1,16.6%
19,CCN(CC(=O)NCc1cccs1)C(=O)c1cc(S(=O)(=O)NCc2ccccc2)ccc1C,-41.7%
20,CC1=NN=C(c2ccccc2)C(c2c[nH]c3ccccc23)N1O (stereo not shown),24.1%
21,Cc1ccc2c(COC(=O)c3ccccc3Cl)cc(=O)oc2c1,24%
22,O=C(CNS(=O)(=O)c1ccc([N+](=O)[O-])cc1)N/N=C\c1ccc(O)cc1,10%

row,Compound,"hERG current change (%, negative = inhibition) at 10uM"
1,COCOc1ccc(-c2oc3c(C/C=C(\C)CCC=C(C)C)ccc(O)c3c(=O)c2OCOC)c(OCOC)c1,-9.2%
2,O=C1S/C(=C\c2ccccc2)C(=O)N1CC(O)Cn1c2ccccc2c2ccccc21 (stereo not shown),10.2%
3,CCC(C)Sc1ccc([C@H]2N[C@@](Cc3ccccc3)(C(=O)OC)[C@H]3C(=O)N(C)C(=O)[C@@H]23)cc1.O=C(O)C(F)(F)F (stereo partly shown),-19.1%
4,Cc1ccsc1C(=O)c1sccc1C,-3.08%
5,Cc1noc(C)c1COC(=O)COc1ccc(-c2ccccc2)cc1,6.28%
6,CC(=O)Oc1ccc(N2C(=O)CCC2=O)cc1,16%
7,COc1cccc2c(=O)n(CC(=O)N3CCCCCC3)ccc12,4.85%
8,COc1ccc(S(=O)(=O)CC2(O)CCN(C(=O)CC(C)C)CC2)cc1,1.79%
9,O=C(/C(C=Nc1ccc(F)cc1)=C(/O)c1ccco1)C(F)(F)F,-26.7%
10,CC1(C)CC(CCC(=O)Nc2ccc(S(N)(=O)=O)cc2)C(=O)O1 (stereo not shown),26.2%
11,CCn1c(SCC(=O)N2CCCCCC2)nc2c([nH]c3ccccc32)c1=O,-18.6%
12,CC(=O)c1ccc(NC(=S)NCCCN2CCOCC2)cc1,14.9%
13,COc1cc2ncnc(NCc3ccccc3)c2cc1OC,-11.2%
14,Cl.O=C(CN1CCCC1)NC12CC3CC(CC(C3)C1)C2,-2.98%
15,Cc1cccn2c(=O)c3cc(C(=O)NCc4ccco4)c(=N)n(C4CCCC4)c3nc12,-78.8%
16,CN1C(=O)N(C)C(=O)C(CCc2ccncc2)(CCc2ccncc2)C1=O,-51.2%
17,COc1ccccc1NCCC(=O)OCC(=O)Nc1cccc(S(=O)(=O)N(C)C)c1,1.54%
18,COCn1c(C(O)c2ccccc2)cc2ccccc21 (stereo not shown),6.02%
19,N#Cc1nc(N)nc(N(c2ccccc2)c2ccccc2)n1,-3.89%
20,COC(=O)c1cn(C(=O)c2cc(Cl)ccc2Cl)c2ccccc12,18.1%
21,COC(=O)Nc1nc(Sc2ncc(C(F)(F)F)cc2Cl)n[nH]1,18.6%
22,Cc1ccc([C@@H]2CC=C(C(=O)O)CN2S(=O)(=O)c2ccc(C)cc2)cc1,22.3%

row,Compound,"hERG current change (%, negative = inhibition) at 10uM"
1,Cc1ccnc(NC(=O)CCC(=O)N(CC(=O)NCC2CCCO2)Cc2ccc(F)cc2)c1 (stereo not shown),0.34%
2,CCOc1ccc(CC(=O)N/N=C/c2sccc2C)cc1,14.5%
3,CC1CC(C)CN(S(=O)(=O)c2ccc3c(c2)n(C)c(=O)c(=O)n3C)C1 (stereo not shown),-2.6%
4,CCOC(=O)c1sc2nc(SC)nc(-c3ccccc3)c2c1N,16.3%
5,CN(C)[C@@H](CO)c1nnc([C@H](CC(=O)O)NC(=O)C2CCNCC2)o1.Cl,10%
6,CCCCN(C)C(=O)C1CCC(=O)N(c2cc(OC)c(OC)c(OC)c2)C1c1ccc(OC)cc1 (stereo not shown),8.39%
7,COc1ccccc1NC(=O)NCc1nc(-c2ccc(C(F)(F)F)cc2)no1,12.7%
8,Cc1cccnc1NC(=S)NC(=O)c1cccs1,5.86%
9,CC(C)CC(C(=O)O)N1C(=O)C2C3CC(C2C1=O)C1C(c2ccccc2)c2sc(=O)[nH]c2SC31 (stereo not shown),-1.65%
10,COC(=O)c1cc(Br)ccc1OC(=O)c1cccnc1,7.06%
11,COc1ccc2nc(NCCCO)[nH]c2c1,-0.951%
12,Cc1cccc2cc3c(nc12)SC(=NCC1CCCO1)N(Cc1ccco1)C3 (stereo not shown),5.01%
13,COc1cc(/C=N/NC(=O)c2cccc([N+](=O)[O-])c2)cc(OC)c1O,-10.8%
14,O=C1C(SCCO)=C(SCCO)C(=O)c2ccccc21,-11%
15,O=C(c1ccccc1)c1ccc(-n2cnnc2)c([N+](=O)[O-])c1,-10.7%
16,CC(C)N1CCc2c(sc(NC(=O)c3cc(-c4cccs4)nc4ccccc34)c2C(N)=O)C1.Cl,1.83%
17,CCn1c(SCC(=O)N/N=C/c2ccccc2OCC(=O)O)nnc1-c1ccc(C)cc1,3.57%
18,CCOc1cc(C2C3=C(CCCC3=O)N(CCC(=O)O)C3=C2C(=O)CCC3)ccc1OS(=O)(=O)c1ccc(C)cc1,0.528%
19,COC(=O)COc1ccc(S(=O)(=O)NCc2ccccn2)cc1,13.3%
20,CCC(C)Nc1nc2c(C)cccn2c(=O)c1C=Nc1ccc(OC)cc1 (stereo not shown),10.1%
21,O=C(O)c1cc(S(=O)(=O)NCCN2CCNC2=O)ccc1O,14.1%
22,CN(Cc1ccccc1)CC(O)COc1ccc(CNCc2ccc(Cl)s2)cc1 (stereo not shown),-12.3%

row,Compound,"hERG current change (%, negative = inhibition) at 10uM"
1,O=C1N[C@@H](Cc2ccccc2)C(=O)N2[C@@H]3N(S(=O)(=O)c4ccccc4)c4ccccc4[C@]3(Br)C[C@@H]12,-13.3%
2,O=C(COC(=O)c1nc(Cl)ccc1Cl)Nc1ncc(Cl)cc1Cl,19.2%
3,COc1ccc(-c2noc(-c3cccnc3)n2)cc1OC,-4.23%
4,COc1cc2[nH]c(=O)c(C(=O)NCc3ccc(F)cc3)c(O)c2cc1OC,7.75%
5,O=C(CNC(=O)c1cccs1)Nc1ncccc1O,7.91%
6,Cc1nc(N(C)Cc2ccccc2)c2nnn(Cc3ccccc3)c2n1,-37.9%
7,CC(=O)Nc1ccc(Cl)cc1C(=O)O,5.96%
8,COc1ccc(CN(CC2CCCO2)C(=O)CN2C(=O)COc3ccccc32)cc1OC (stereo not shown),-15.8%
9,CCN(CC)CCOC(=O)c1cccc2c1-c1ccccc1C2O.Cl (stereo not shown),-18.8%
10,CCCCNC(=O)NC12CC3CC(CC(C3)C1)C2,6.46%
11,Cc1nn(-c2ccccc2)c(C)c1C(=O)NCc1cccs1,10.4%
12,O=S(=O)(c1cccc2cccnc12)N1CCCCC1,4.58%
13,CCN(CC)CCCCOc1ccccc1OC,-11.6%
14,Cn1nnnc1SCC(=O)N1CCc2ccccc21,2.62%
15,CC(C)(C)NC(=O)NC(=O)COC(=O)c1cccc(NS(=O)(=O)c2ccc(F)c(F)c2)c1,-7.24%
16,CCC(C)(C(=O)NC1CCCC1)N(C(=O)Cc1cccs1)c1c(C)n(C)n(-c2ccccc2)c1=O (stereo not shown),2%
17,O=C(CCC(=O)N1CCSc2ccccc21)Nc1ccc(F)cc1,-4.12%
18,Cc1ccc(N(CC(=O)O)S(=O)(=O)c2cccc3nonc23)cc1,21%
19,COc1ccc2ccccc2c1/C=N\n1c(C)cc(C)c(C(N)=O)c1=O,1.44%
20,CCOC(=O)C1CCN(Cc2ccc(N(C)C)cc2)CC1,-8.06%
21,CC1Cc2ccccc2C(CCc2ccccc2)=N1.Cl (stereo not shown),-9.14%
22,Cc1cc(Cl)ccc1OCC(=O)N1CCCN(C(=O)COc2ccc(Cl)cc2C)CC1,-58.5%
